Part of at least one peptide drawing is inferred or uncertain, most often the ends. Square brackets hold non-standard residues; d marks the D form. Peptide text beside a SMILES is read from it. * marks the point of attachment. dCha = N[C@H](CC1CCCCC1)C(=O)O; dChg = N[C@@H](C(=O)O)C1CCCCC1; dPhg = N[C@@H](C(=O)O)c1ccccc1; pNA = O=[N+]([O-])c1ccc(N*)cc1; dNle = CCCC[C@@H](N)C(=O)O; dNva = CCC[C@@H](N)C(=O)O; Cbz = O=C(OCc1ccccc1)*; NEtG = CCNCC(=O)O; OtBu = CC(C)(C)O*; Ms = CS(=O)(=O)*; Sar = CNCC(=O)O
Molecular target: T1, bovine factor Xa (Bos taurus, UniProt P00743)
T1 construct: purchased Diagnostic Reagents Ltd., Thame, Great Britain factor Xa preparation "Diagen"
T1 sequence (P00743 234-492 limits assumed): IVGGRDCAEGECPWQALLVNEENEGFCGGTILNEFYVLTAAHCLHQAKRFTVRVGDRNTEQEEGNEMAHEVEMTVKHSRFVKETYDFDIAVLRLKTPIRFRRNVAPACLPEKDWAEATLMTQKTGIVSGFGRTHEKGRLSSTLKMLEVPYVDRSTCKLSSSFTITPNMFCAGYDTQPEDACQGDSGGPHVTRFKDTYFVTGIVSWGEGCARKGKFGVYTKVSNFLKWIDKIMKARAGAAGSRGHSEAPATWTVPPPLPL
T1 sequence (P00743 41-180 partner limits assumed): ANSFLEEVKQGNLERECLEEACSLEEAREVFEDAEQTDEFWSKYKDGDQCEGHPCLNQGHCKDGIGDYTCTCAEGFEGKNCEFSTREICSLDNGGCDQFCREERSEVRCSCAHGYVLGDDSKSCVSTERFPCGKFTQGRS
Assay: Activity of bovine factor Xa solution on chromogenic/fluorogenic substrate (split product H-R5 released)
Type: biochemical
Settings: substrate concentration 2 × 10^-4; TRIS-imidazole buffer pH 8.4, ionic strength 0.3, 37° C.; factor Xa preparation "Diagen"; value calculated for 1 ml of factor Xa solution
Protocol: The values of the factor Xa activity given in Table 4 were determined experimentally in the manner described hereinafter:
For determining the activity of bovine factor Xa 1.8 ml of TRIS-imidazole buffer having a pH of 8.4 and an ionic strength of 0.3 was well mixed at 37° C. with 0.025 ml of an aqueous solution of factor Xa preparation "Diagen" (furnisher: Diagnostic Reagents Ltd., Thame, Great Britain) obtained by dissolving the contents of one vial in 0.5 ml of water. To the mixture there was added 0.2 ml of a 2×10^-3 M aqueous solution of a substrate of the invention. Thereafter, the quantity of split product H--R^5 in nanomoles released per minute was determined, and the corresponding value of 1 ml of factor Xa solution was calculated.

Row | SMILES | Activity of 1 ml of aqueous solution of bovine factor Xa, expressed in nanomoles of split product H--R^5 released per minute
1 | N=C(N)NCCC[C@H](NC(=O)CNC(=O)[C@H](NC(=O)OCc1ccccc1)C1CCCCC1)C(=O)Nc1ccc([N+](=O)[O-])cc1 [Example 13, Cbo--D-CHG--Gly--Arg--pNA.HBr] (Cbz-[dChg]-Gly-Arg-pNA) | 1526 nanomoles of split product H--
2 | N=C(N)NCCC[C@H](NC(=O)CNC(=O)[C@@H](CC1CCC(O)CC1)NC(=O)OCc1ccccc1)C(=O)Nc1ccc([N+](=O)[O-])cc1 (stereo partly drawn) [Example 14, Cbo--D-CHT--Gly--Arg--pNA.HBr] | 1936 nanomoles of split product H--
3 | N=C(N)NCCC[C@H](NC(=O)CNC(=O)[C@H](NC(=O)OCc1ccccc1)c1ccccc1)C(=O)Nc1ccc([N+](=O)[O-])cc1 [Example 15, Cbo--D-Ph'Gly--Gly--Arg--pNA.HBr] (Cbz-[dPhg]-Gly-Arg-pNA) | 1436 nanomoles of split product H--
4 | N=C(N)NCCC[C@H](NC(=O)CNC(=O)[C@@H](Cc1ccccc1)NC(=O)OCc1ccccc1)C(=O)Nc1ccc([N+](=O)[O-])cc1 [Example 16, Cbo--D-Phe--Gly--Arg--pNA.HBr] (Cbz-[dF]-Gly-Arg-pNA) | 1630 nanomoles of split product H--
5 | CC(C)[C@@H](NC(=O)OCc1ccccc1)C(=O)NCC(=O)N[C@@H](CCCNC(=N)N)C(=O)Nc1ccc([N+](=O)[O-])cc1 [Example 17, Cbo--D-Val--Gly--Arg--pNA.HBr] (Cbz-[dV]-Gly-Arg-pNA) | 1320 nanomoles of split product H--
6 | CC[C@@H](C)[C@@H](NC(=O)OCc1ccccc1)C(=O)NCC(=O)N[C@@H](CCCNC(=N)N)C(=O)Nc1ccc([N+](=O)[O-])cc1 [Example 18, Cbo--D-Ile--Gly--Arg--pNA.HBr] (Cbz-[dI]-Gly-Arg-pNA) | 1385 nanomoles of split product H--
7 | CC(C)(C)OC(=O)[C@@H](CCC(=O)NCC(=O)N[C@@H](CCCNC(=N)N)C(=O)Nc1ccc([N+](=O)[O-])cc1)NC(=O)OCc1ccccc1 [Example 19, Cbo--D-Glu(α-OtBu)--Gly--Arg--pNA.HBr] | 1290 nanomoles of split product H--
8 | CC(C)(C)OC(=O)C[C@@H](NC(=O)OCc1ccccc1)C(=O)NCC(=O)N[C@@H](CCCNC(=N)N)C(=O)Nc1ccc([N+](=O)[O-])cc1 [Example 20, Cbo--D-Asp(β -OtBu)--Gly--Arg--pNA.HBr] (Cbz-[dD](OtBu)-Gly-Arg-pNA) | 1045 nanomoles of split product H--
9 | N=C(N)NCCC[C@H](NC(=O)CNC(=O)[C@@H](Cc1c[nH]cn1)NC(=O)OCc1ccccc1)C(=O)Nc1ccc([N+](=O)[O-])cc1 [Example 21, Cbo--D-His--Gly--Arg--pNA.2HBr] (Cbz-[dH]-Gly-Arg-pNA) | 1675 nanomoles of split product H--
10 | CC(C)C[C@@H](NC(=O)OCc1ccccc1)C(=O)N(C)CC(=O)N[C@@H](CCCNC(=N)N)C(=O)Nc1ccc([N+](=O)[O-])cc1 [Example 22, Cbo--D-Leu--Sar--Arg--pNA.HBr] (Cbz-[dL]-[Sar]-Arg-pNA) | 1555 nanomoles of split product H--
11 | CC(C)C[C@@H](NC(=O)OCc1ccccc1)C(=O)N[C@@H](C)C(=O)N[C@@H](CCCNC(=N)N)C(=O)Nc1ccc([N+](=O)[O-])cc1 [Example 23, Cbo--D-Leu--Ala--Arg--pNA.HBr] (Cbz-[dL]-Ala-Arg-pNA) | 985 nanomoles of split product H--
12 | CCCC[C@@H](NS(C)(=O)=O)C(=O)NCC(=O)N[C@@H](CCCNC(=N)N)C(=O)Nc1ccc([N+](=O)[O-])cc1 [Example 24, CH3 SO2 --D-Nleu--Gly--Arg--pNA.AcOH] (Ms-[dNle]-Gly-Arg-pNA) | 2214 nanomoles of split product H--
13 | CCCC[C@@H](NC(=O)OCC(C)C)C(=O)NCC(=O)N[C@@H](CCCNC(=N)N)C(=O)Nc1ccc([N+](=O)[O-])cc1 [Example 25, isoButoxy-CO--D-Nleu--Gly--Arg--pNA.AcOH] | 2280 nanomoles of split product H--
14 | CCN(CC(=O)N[C@@H](CCCNC(=N)N)C(=O)Nc1ccc([N+](=O)[O-])cc1)C(=O)[C@@H](CC(C)C)NC(=O)OCc1ccccc1 [Example 26, Cbo--D-Leu--N(Et)Gly--Arg--pNA.HBr] (Cbz-[dL]-[NEtG]-Arg-pNA) | 1205 nanomoles of split product H--
15 | CCCN(CC(=O)N[C@@H](CCCNC(=N)N)C(=O)Nc1ccc([N+](=O)[O-])cc1)C(=O)[C@@H](CC(C)C)NC(=O)OCc1ccccc1 [Example 27, Cbo--D-Leu--N(Pr)Gly--Arg--pNA.HBr] | 1025 nanomoles of split product H--
16 | CN(CC(=O)N[C@@H](CCCNC(=N)N)C(=O)Nc1ccc([N+](=O)[O-])cc1)C(=O)[C@@H](CC1CCCCC1)NC(=O)OCc1ccccc1 [Example 28, Cbo--D-CHA--Sar--Arg--pNA.HBr] (Cbz-[dCha]-[Sar]-Arg-pNA) | 2028 nanomoles of split product H--
17 | CN(CC(=O)N[C@@H](CCCNC(=N)N)C(=O)Nc1ccc([N+](=O)[O-])cc1)C(=O)[C@@H](CC1CCC(O)CC1)NC(=O)OCc1ccccc1 (stereo partly drawn) [Example 29, Cbo--D-CHT--Sar--Arg--pNA.HBr] | 1940 nanomoles of split product H--
18 | CCCC[C@@H](NC(=O)OCc1ccccc1)C(=O)N(C)CC(=O)N[C@@H](CCCNC(=N)N)C(=O)Nc1ccc([N+](=O)[O-])cc1 [Example 30, Cbo--D-Nleu--Sar--Arg--pNA.HBr] (Cbz-[dNle]-[Sar]-Arg-pNA) | 1986 nanomoles of split product H--
19 | CCC[C@@H](NC(=O)OCc1ccccc1)C(=O)N(C)CC(=O)N[C@@H](CCCNC(=N)N)C(=O)Nc1ccc([N+](=O)[O-])cc1 [Example 31, Cbo--D-Nval--Sar--Arg--pNA.HBr] (Cbz-[dNva]-[Sar]-Arg-pNA) | 1160 nanomoles of split product H--
20 | CC(C)C[C@@H](NS(=O)(=O)c1ccccc1)C(=O)NCC(=O)N[C@@H](CCCNC(=N)N)C(=O)Nc1ccc([N+](=O)[O-])cc1 [Example 32, Benzenesulfonyl-D-Leu--Gly--Arg--pNA.HBr] | 1070 nanomoles of split product H--
21 | CC(C)C[C@@H](NS(=O)(=O)c1cccc2ccccc12)C(=O)NCC(=O)N[C@@H](CCCNC(=N)N)C(=O)Nc1ccc([N+](=O)[O-])cc1 [Example 34, α -Naphthalenesulfonyl-D-Leu--Gly--Arg--pNA.HBr] | 1040 nanomoles of split product H--
22 | CCCCS(=O)(=O)N[C@H](CC(C)C)C(=O)NCC(=O)N[C@@H](CCCNC(=N)N)C(=O)Nc1ccc([N+](=O)[O-])cc1 [Example 35, n-butanesulfonyl-D-Leu--Gly--Arg--pNA.HBr] | 1380 nanomoles of split product H--
